Experimental data published in PubChem BioAssay (NCI).
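Dose response: 5 concentrations. Exposure: 48 h. Format: 96-well plates. Endpoint: linear interpolation; highest concentration if not reached. GI50 = concentration required for 50% inhibition of growth. TGI marks complete inhibition of growth.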

The molecules below were run on NCI-H322M lung (assay: growth of human tumour cells (NCI), 48 h).

What does the source list for `CCOC(=O)c1c(C)n(Cc2ccc(Cl)cc2Cl)c2c1cc1oc(=O)c(=O)n3cnc2c13`?
GI50: 12.8 µM; TGI: 26.2 µM

With `[O-][N+]1(CC[N+]2([O-])CCCCC2)CCCCC1` as the molecule, how does the TGI read?
The TGI was > 100 µM.

For `CC(C)(C)CC(C)(C)NC(=S)NO`, which TGI is on record?
The TGI was > 100 µM.

How did the GI50 turn out when `CNNC(=N\S(=O)(=O)c1cc(C)c(Cl)cc1SCc1ccccc1)/N=C/c1ccc([N+](=O)[O-])s1` was run?
Its GI50 is > 58.6 µM.

And the TGI?
The TGI was > 100 µM.

Which TGI does the source give for `CCOC(=O)NNC(=O)NCc1ccccc1CNC(=O)NNC(=O)OCC` here?
Its TGI is > 100 µM.

Which TGI does the source give for `CC(=O)NC1=C(NCCCl)C(=O)c2ccccc2C1=O` here?
The TGI was > 100 µM.

Which results are given for `Cn1cccc1-c1cc(-c2ccccc2)[nH]c(=O)c1C#N`?
GI50: > 100 µM; TGI: > 100 µM

With `O=c1cc(-c2ccc(O)cc2)oc2cc(O[C@@H]3O[C@H](CO)[C@@H](O)[C@H](O)[C@H]3O)cc(O)c12` as the molecule, how does the TGI read?
Its TGI is > 100 µM.

For `CCOC(=O)C(NC(=O)CC)(Nc1ccc(S(=O)(=O)Nc2onc(C)c2C)cc1)C(F)(F)F` (stereo not drawn), which TGI is on record?
Its TGI is > 100 µM.

Which results are given for `NS(=O)(=O)c1ccc(N=Nc2c(O)[nH]c3ccc(C(=O)NCc4ccncc4)cc23)cc1`?
GI50: > 25 µM; TGI: > 25 µM

For `Cc1ccc(N(O)C(C)(C)C)cc1`, which TGI is on record?
Its TGI is > 100 µM.

For `COc1ccc(C(Cc2ccccc2)C2NC(=S)NC2=O)cc1` (stereo not drawn), which TGI is on record?
Its TGI is > 25 µM.

`COc1ccc(/C=C/C(=O)c2ccc(-n3cc(CN4CCN(c5cc6c(cc5F)c(=O)c(C(=O)O)cn6C5CC5)CC4)nn3)cc2)cc1OC` was tested. Which GI50 did it give?
The GI50 was 3.58 µM.

What about the TGI of the same molecule?
Its TGI is > 100 µM.

How did the TGI turn out when `CC(C)=CCOc1cc(NC(=S)c2ccsc2C)ccc1Cl` was run?
The TGI was > 100 µM.

Which TGI does the source give for `O=C(Sc1c(-c2ccccc2)c(=O)n(-c2ccccc2)c(=S)n1-c1ccccc1)c1cccs1` here?
The TGI was > 100 µM.

Which TGI does the source give for `CC(=O)NNc1nc(C)c(C(=O)NNC(=O)C(=O)Nc2cccc(C(C)=O)c2)s1` here?
The TGI was 38 µM.

For `CC1(C)C2CCC3(OCCO3)C1C(O)C2` (stereo not drawn), which TGI is on record?
Its TGI is > 100 µM.

`Cc1c(OCc2ccccc2)c(=O)ccn1CCc1c[nH]c2ccccc12` was tested. Which TGI did it give?
The TGI was > 100 µM.

With `CCCCCN(CCCCC)CC(O)c1cc(Cl)ccc1OC` (stereo not drawn) as the molecule, how does the GI50 read?
The GI50 was 9.1 µM.

What about the TGI of the same molecule?
The TGI was 39.3 µM.

`COC(=O)CCc1c(Cc2ccc[nH]2)[nH]c(C(=O)OCc2ccccc2)c1C` was tested. Which TGI did it give?
Its TGI is > 100 µM.

For `CCCc1c(C(=O)OCC)[nH]c(-c2ccc(-c3[nH]c(C(=O)OCC)c(CCC)c3C(=O)OCC)s2)c1C(=O)OCC`, which TGI is on record?
The TGI was > 100 µM.

`COc1ccc2c(c1)CC[C@@H]1C2CC[C@](C)(C#N)C1CC#N` (stereo partly drawn) was tested. Which TGI did it give?
The TGI was > 100 µM.

`COc1cc(C2C(Cl)C(=O)N2NC(=O)c2ccc(NC(C)=O)cc2)ccc1O` (stereo not drawn) was tested. Which TGI did it give?
The TGI was > 100 µM.

`N=C(N)SCCC(=O)CCSC(=N)N` was tested. Which TGI did it give?
The TGI was > 100 µM.

Which results are given for `CN1CCN(CCOc2ccc(-c3cnc4c(-c5cccc(F)c5)cnn4c3)cc2)CC1`?
GI50: 1.91 µM; TGI: 4.08 µM

For `CCSCN(C)c1nc(N(C)C)nc(N(C)C)n1`, which TGI is on record?
Its TGI is > 100 µM.
